Out of some 16,000 compounds screened, about 120 (0.75%) were called active. About 4% were inconclusive and are not listed. Calls follow the shape of the dose curve; as a rule, active = well fitted inhibition curve with a large enough effect; inconclusive = small, poorly fitted or top-dose-only effect; inactive = no such curve, though single readings can be large or run the other way. This is one part of the list. Where a SMILES comes first, the peptide text is derived from it. [ ]: non-standard residue; d: D form. Met(O) = CS(=O)CC[C@H](N)C(=O)O; Phe(ol) = N[C@H](CO)Cc1ccccc1; Sar = CNCC(=O)O
Target: Rap guanine nucleotide exchange factor 3 (Homo sapiens) (UniProt O95398)
Assay: Validation qHTS for antagonist of cAMP-regulated guanine nucleotide exchange factor 3 (EPAC1);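 also: plate controls were DMSO for no effect and ATA control for full effect; nearly all actives have a fitted effect of over 75% in size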
Details: EPAC1 Rap1B-BODIPY-GDP exchange, fluorescence; series mostly up to 150 µM; activity change, negative = inhibition: at the top concentration
Procedure, shortened: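 Nucleotide exchange followed as fluorescence loss when BODIPY-GDP leaves Rap1B (480 nm excitation, 540 nm emission), read at 5 min intervals over 30 min. Reaction: 100 nM EPAC1, 250 nM RAP1B-BODIPY-GDP, 50 uM GDP; ATA and DMSO define normalization.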

Chain of UniProt O95398 (O95398 whole entry, looked up): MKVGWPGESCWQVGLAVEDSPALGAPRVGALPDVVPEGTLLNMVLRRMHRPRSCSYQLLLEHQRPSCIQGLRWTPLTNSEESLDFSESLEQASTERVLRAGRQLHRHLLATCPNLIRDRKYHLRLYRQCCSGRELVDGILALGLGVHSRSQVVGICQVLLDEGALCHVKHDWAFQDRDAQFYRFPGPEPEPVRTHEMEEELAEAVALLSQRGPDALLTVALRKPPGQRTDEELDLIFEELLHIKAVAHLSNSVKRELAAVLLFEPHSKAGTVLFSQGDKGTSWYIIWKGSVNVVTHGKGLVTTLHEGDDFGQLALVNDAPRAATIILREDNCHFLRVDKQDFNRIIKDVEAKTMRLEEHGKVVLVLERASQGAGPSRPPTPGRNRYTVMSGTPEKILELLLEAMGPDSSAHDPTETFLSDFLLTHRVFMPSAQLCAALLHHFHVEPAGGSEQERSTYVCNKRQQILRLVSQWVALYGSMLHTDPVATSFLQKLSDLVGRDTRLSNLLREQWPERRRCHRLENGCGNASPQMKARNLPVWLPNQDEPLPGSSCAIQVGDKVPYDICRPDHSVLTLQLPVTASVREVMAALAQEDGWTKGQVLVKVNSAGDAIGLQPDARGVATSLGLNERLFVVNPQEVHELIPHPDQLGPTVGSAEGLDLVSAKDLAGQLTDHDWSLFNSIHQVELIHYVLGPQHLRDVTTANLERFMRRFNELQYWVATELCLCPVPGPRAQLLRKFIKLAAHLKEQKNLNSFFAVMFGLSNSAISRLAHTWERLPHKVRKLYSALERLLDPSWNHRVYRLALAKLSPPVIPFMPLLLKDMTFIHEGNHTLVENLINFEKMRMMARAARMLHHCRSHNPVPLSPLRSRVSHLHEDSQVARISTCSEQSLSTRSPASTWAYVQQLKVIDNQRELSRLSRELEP

Structure (SMILES) | activity change, negative = inhibition
CN1CC[C@@H]2CN3CCc4cccc(c43)[C@@H]2C1 | inactive: 2.75%
COc1ccc2c3c1O[C@H]1[C@@H](O)C=C[C@H]4[C@@H](C2)NCC[C@@]341 | inactive
C[N+]1(C)CCc2cc3c(cc2[C@H]1[C@@H]1OC(=O)c2c1ccc1c2OCO1)OCO3 | inactive: 10.9% [at 75.8 µM]
Cc1nnc2n1-c1ccc(Cl)cc1C(c1ccccc1)=NC2 | inactive: 26%
CCC/C=C/C=C/C(=O)O[C@H]1/C(=C/C(=O)OC)C[C@H]2C[C@H]([C@@H](C)O)OC(=O)C[C@H](O)C[C@@H]3C[C@H](OC(C)=O)C(C)(C)[C@](O)(C[C@@H]4C/C(=C/C(=O)OC)C[C@H](/C=C/C(C)(C)[C@]1(O)O2)O4)O3 | inactive: -4.25%
O=C(CN1CCCC1)c1ccccc1 | inactive: -7.88%
C=CCc1cc(OC)c2c(c1OC)OCO2 | inactive: 4.54%
O=C(O)[C@@H]1CSC(c2cccnc2)N1 (stereo not given in full) | inactive: 15.1%
COc1ccc2c(c1O)-c1cccc3c1[C@@H](C2)N(C)CC3 | inactive: 20.3% [at 75.8 µM]
NC(CCP(=O)(O)O)C(=O)O (stereo not given) | inactive
c1ccc(CN2CCCC3(CCNCC3)C2)cc1 | inactive: 13.9%
COc1cccc(-c2ccc(O)c(CNC3CN4CCC3CC4)c2)n1 (stereo not given) | inactive: 5.82%
NCC1(CC(=O)O)CCCCC1 | inactive
COc1cc2ccc(=O)oc2c2ccoc12 | inactive: -8.29%
C[C@]12CC[C@H]3[C@@H](CCC4=CC(=O)CC[C@@]43C)[C@@H]1CC[C@@H]2OC(=O)CCc1ccccc1 | inactive: 9.06% [at 320 µM]
COC1CC(OC2CC[C@@]3(C=O)C4CC[C@]5(C)C(C6=CC(=O)OC6)CC[C@@]5(O)C4CC[C@]3(O)C2)OC(C)C1O (stereo not given in full) | inactive: 7.91%
CCC(=O)Nc1ccc(Cl)c(Cl)c1 | inactive: -22.6%
CCC(=O)C(CC(C)N(C)C)(c1ccccc1)c1ccccc1 (stereo not given) | inactive: 34.5% [at 320 µM]
C=CCc1ccc(OC)cc1 | inactive: -7.98%
CCOC(=O)[C@]12Cc3ccccc3[C@H]1N(Cc1ccccc1)C(=O)c1ccccc12 | inactive: -0.377%
COc1ccc(OC)c([C@@H](O)[C@H](C)N)c1 | inactive: 18%
Cc1ccccc1-c1cncnc1NCCc1cnc[nH]1 | inactive: 21.5%
COC[C@H]1OC(=O)c2coc3c2[C@@]1(C)C1=C(C3=O)C2CCC(=O)[C@@]2(C)C[C@H]1OC(C)=O (stereo not given in full) | inactive
Nc1ccc(Cl)cc1N | inactive: 9.12% [at 320 µM]

Structure (SMILES) | activity change, negative = inhibition
CN(C(=O)Cc1ccc(Cl)c(Cl)c1)[C@H](CN1CCCC1)c1cccc(N=C=S)c1 | inactive: -9.35%
O=C(O)CF | inactive: 7.39%
Cc1ccc2c(c1)[C@]13CCCC[C@@H]1[C@H](C2)N(C)CC3 | inactive: 19.2%
O=C(CCCN1CCC2(CC1)C(=O)NCN2c1ccccc1)c1ccc(F)cc1 | inactive
C=CCN1CCC23c4c5ccc(O)c4OC2/C(=N/N=C2\CCC4(O)C6Cc7ccc(O)c8c7C4(CCN6CC=C)C2O8)CCC3(O)C1C5 (stereo not given) | inactive: 7.98%
C[C@@H]1O[C@H](C[N+](C)(C)C)CS1 | inactive: -10.3% [at 75.8 µM]
CCOP(=O)(OCC)O/C(=C/Cl)c1ccc(Cl)cc1Cl | inactive: 0.79%
O=[N+]([O-])O[C@H]1CO[C@H]2[C@@H]1OC[C@H]2O[N+](=O)[O-] | inactive: 18.8%
C[C@]12Cc3nonc3C[C@@H]1CC[C@@H]1[C@@H]2CC[C@@]2(C)[C@H]1CC[C@]2(C)O | inactive: 10.4%
C=C1CC[C@@]2(O)[C@H]3Cc4ccc(O)c5c4[C@@]2(CCN3CC2CC2)[C@H]1O5 | inactive: 15%
Fc1ccc(C(OCCN2CCN(C/C=C/c3ccccc3)CC2)c2ccc(F)cc2)cc1 | inactive: -13.8%
CC(C)Oc1cccnc1N(C)C1CCN(Cc2ccccc2)CC1 | inactive: -9.06% [at 75.8 µM]
CCOC(=O)/C=C(C)/C=C/C[C@@H](C)CCCC(C)C | inactive: 4.04%
C#CCN1CC(=O)N(COC(=O)C2C(C=C(C)C)C2(C)C)C1=O (stereo not given) | inactive: 6.29%
Cc1ncsc1CCCl | inactive
CC(=O)OC1CC[C@]2(C)C(CCC3C2CC[C@]2(C)C(C4=CC(=O)OC4)C(OC(C)=O)CC32O)C1 (stereo not given in full) | inactive: -0.664%
CCCCCCC(C)(C)c1ccc([C@@H]2C[C@H](O)CC[C@H]2CCCO)c(O)c1 | inactive: 7.06% [at 75.8 µM]
CC(C)CN1CCC2(CC1)CCN(S(C)(=O)=O)CC2 | inactive: 6.2%
CCN1C[C@]2(C)CC[C@H](OC)[C@@]34[C@H]1C1(OCO[C@@]15C[C@H](OC)C1C[C@]3(O)C5[C@H]1OC)[C@@H](O)[C@H]24 | inactive: 0.739%
C[C@@]12CCC(Cl)C[C@H]1CCC1C2CC[C@]2(C)C(=O)CCC12 (stereo not given in full) | inactive: 7.52%
COC1(CS(=O)c2ccccc2)CCN(CCc2c[nH]c3ccc(F)cc23)CC1 (stereo not given) | inactive: 15.3%
O.O.O.O=C([O-])C(O)C(O)C(=O)[O-].O=C([O-])C(O)C(O)C(=O)[O-].[K+].[K+].[Sb].[Sb] (stereo not given) | inactive: 15.8%
C=CCN1CC[C@@]23c4c5ccc(O)c4O[C@H]2/C(=N\N=C2/CC[C@@]4(O)[C@H]6Cc7ccc(O)c8c7[C@@]4(CCN6CC=C)[C@@H]2O8)CC[C@]3(O)[C@@H]1C5 | inactive: 10.9%
O=C(Nc1ccccc1)N1CC[C@@]2(CCCNC2)C1 | inactive: 2.67%

Structure (SMILES) | activity change, negative = inhibition
[2H]C([2H])([2H])[C@H](N)Cc1ccccc1 | inactive: 17%
CC(O)(CS(=O)(=O)c1ccc(F)cc1)C(=O)Nc1ccc(C#N)c(C(F)(F)F)c1 (stereo not given) | inactive: 4.8% [at 75.8 µM]
C=CCN1CC[C@]23c4c5ccc(O)c4O[C@@H]2/C(=N/N=C2\CC[C@@]4(O)C6Cc7ccc(O)c8c7[C@@]4(CCN6CC=C)[C@@H]2O8)CC[C@@]3(O)C1C5 | inactive: -8.98% [at 75.8 µM]
CC1O[C@@H](O[C@@H]2C(O)C[C@H](O[C@@H]3C(O)C[C@@H](OC4CC[C@@]5(C)C6CC[C@]7(C)C(C8=CC(=O)OC8)CC[C@@]7(O)C6CC[C@@H]5C4)OC3C)OC2C)CC(O)[C@H]1O (stereo not given in full) | inactive: 10.4%
CCCn1c(=O)c2[nH]c(C3CCCC3)nc2n(CCCOC(=O)c2ccc(S(=O)(=O)F)cc2)c1=O | inactive: 7.11% [at 75.8 µM]
CN1C2CCC1CC(OC(c1ccccc1)c1ccc(Cl)cc1)C2 (stereo not given) | inactive: 6.83%
CC1CC[C@@]2(OC1)O[C@@H]1[C@@H](O)[C@H]3C4CC[C@H]5C[C@@H](O[C@@H]6O[C@H](CO)[C@H](O[C@@H]7O[C@H](CO)[C@@H](O)[C@H](O[C@@H]8OC[C@@H](O)[C@H](O)[C@H]8O)[C@H]7O[C@@H]7O[C@H](CO)[C@@H](O)[C@H](O[C@@H]8O[C@H](CO)[C@@H](O)[C@H](O)[C@H]8O)[C@H]7O)[C@H](O)[C@H]6O)[C@H](O)C[C@]5(C)C4CC[C@]3(C)[C@H]1[C@@H]2C (stereo not given in full) | inactive: 12.2%
CCOC(=O)c1cncn1[C@H](C)c1ccccc1 | inactive: 2.31%
CNC(=O)Oc1cccc2ccccc12 | inactive: 7.5%
CCOC(=O)c1cncn1C(C)c1ccccc1 (stereo not given) | inactive: 15.7% [at 75.8 µM]
Cc1noc(C)c1C(=O)N1CCC2(CCCN(CC(C)C)C2)CC1 | inactive: 17.6%
N[C@@H](CCP(=O)(O)O)C(=O)O | inactive: -4.79%
Cc1nc(-c2ccc(-c3ccc(C(=O)N4CCc5cc6c(cc54)C4(CCN(C)CC4)CO6)cc3)c(C)c2)no1 | inactive: -5.95%
C[C@]12CCC3C(CC[C@H]4C[C@H](O)CC[C@]34C)[C@@H]1CC[C@@H]2C(=O)CO (stereo not given in full) | inactive: 19.1%
CCOC(=O)C1(c2ccccc2)CCCN(C)CC1 (stereo not given) | inactive: 17.5%
CC(Cc1ccccc1)NC=O (stereo not given) | inactive: 8.76%
CN(CC(=O)N[C@H](CO)Cc1ccccc1)C(=O)[C@H](CCS(C)=O)NC(=O)[C@@H](N)Cc1ccc(O)cc1 (stereo not given in full) (H-Y[Met(O)][Sar][Phe(ol)]) | inactive: 20.1% [at 15.3 µM]
O=CC=O | inactive: -2.87%
NC1C[C@H]1c1ccccc1 (stereo not given in full) | inactive: -2.04%
CCCCCCC(C)OC(=O)COc1ccc(Cl)cc1Cl (stereo not given) | inactive: 7.72%
CC(C)c1cccc(C(C)C)c1O | inactive
c1ccc(N2CCC3(CCNCC3)CC2)nc1 | inactive: 13.1%
O=C(c1csnn1)N1CCC2(CC1)CN(Cc1ccncc1)C2 | inactive: 7.56%
C[C@]1(C(=O)O)CCC[C@]2(C)c3cc(O)ccc3CC[C@@H]12 | inactive: 10.1%

Structure (SMILES) | activity change, negative = inhibition
CCCCCCCCCCCCCCCCOC[C@@H](O)COP(=O)([O-])OCC[N+](C)(C)C | inactive: -0.837% [at 15.3 µM]
NC[C@H](CP(=O)(O)O)c1ccc(Cl)cc1 | inactive: -2.72%
c1cnc(N2CCC3(CCNCC3)CC2)nc1 | inactive: 24.7%
CCCCCCCCCOc1ccc2[nH]cc(CCN)c2c1 | inactive
CC(=O)[C@H]1CCC2C3CC[C@H]4C[C@H](O)CC[C@]4(C)C3CC[C@@]21C (stereo not given in full) | inactive: -5.68% [at 75.8 µM]
Clc1ccc(COC(Cn2ccnc2)c2ccc(Cl)cc2Cl)cc1 (stereo not given) | inactive: -19.9%
COc1ccc2c(c1OC)C(=O)OC2C1c2cc3c(cc2CCN1C)OCO3 (stereo not given) | inactive
CCN(CC)/[N+]([O-])=N/O | inactive: 11.1%
c1ccc(C[C@@H](c2ccccc2)N2CCCCC2)cc1 | inactive: 6.87%
Clc1ccc(C2(Cn3cncn3)OCCO2)c(Cl)c1 | inactive: 18.3%
Cc1[nH]c2ccccc2c1CN(C)C | inactive: -13%
CCCCCCCCCC(=O)O[C@H]1CC[C@H]2[C@@H]3CCC4=CC(=O)CC[C@@H]4[C@H]3CC[C@]12C | inactive: -6.61%
O=C(NCNC(=O)NC1C(=O)NC(=O)N1CO)NC1C(=O)NC(=O)N1CO (stereo not given) | inactive: 12.5%
CC(=O)O[C@H]1CC[C@@]2(C)C(=CC[C@@H]3[C@@H]2CC[C@]2(C)C(=O)CC[C@@H]32)C1 | inactive: 6.3% [at 75.8 µM]
CC1CCC2C(C)C(=O)OC3OC4(C)CCC1C32OO4 (stereo not given) | inactive: -2.77%
O=C1C2CC=CCC2C(=O)N1SC(Cl)(Cl)Cl (stereo not given) | inactive: 27%
O=C(Oc1ccccc1)N1CCC2(CC1)CN(Cc1ccncc1)C2 | inactive: 6.33%
N#CC(C#N)=Cc1cc(O)c(O)c(O)c1 | inactive: -5.99%
CCCCCCCCCCCCCCCC[N+](C)(C)C | inactive: 10.8%
O=[N+]([O-])c1ccccc1 | inactive: 8.55%
C[C@@H]1O[C@@H](O[C@H]2CC[C@]3(C=O)C4CC[C@]5(C)[C@@H](C6=CC(=O)OC6)CC[C@]5(O)[C@@H]4CC[C@]3(O)C2)[C@H](O)[C@H](O)[C@H]1O (stereo not given in full) | inactive: 9.73%
CN1C[C@H](CNC(=O)OCc2ccccc2)C[C@@H]2c3cccc4c3c(cn4C)C[C@H]21 | inactive
CC(C)(O)C1O[C@H]2CC[C@@]3(C)[C@@](O)(CC[C@H]4Cc5c([nH]c6ccccc56)[C@@]43C)C2=CC1=O (stereo not given in full) | inactive

Reference: PubChem BioAssay AID1645882 (National Center for Advancing Translational Sciences (NCATS), 2021)
